Measured values as given in PMC4336329 (PLoS ONE, 2015).
Among all 310,000 compounds or so, about 2,200 (0.71%) showed an effect of 50% or more. The effect is printed as a negative number. This is one part of the list.

Each compound was assayed against human ether-à-go-go-related gene (hERG) potassium channel (human, UniProt Q12809) (assay: primary screen, population patch clamp on CHO cells stably expressing hERG).
Chain of human ether-à-go-go-related gene (hERG) potassium channel (Q12809 whole entry, looked up): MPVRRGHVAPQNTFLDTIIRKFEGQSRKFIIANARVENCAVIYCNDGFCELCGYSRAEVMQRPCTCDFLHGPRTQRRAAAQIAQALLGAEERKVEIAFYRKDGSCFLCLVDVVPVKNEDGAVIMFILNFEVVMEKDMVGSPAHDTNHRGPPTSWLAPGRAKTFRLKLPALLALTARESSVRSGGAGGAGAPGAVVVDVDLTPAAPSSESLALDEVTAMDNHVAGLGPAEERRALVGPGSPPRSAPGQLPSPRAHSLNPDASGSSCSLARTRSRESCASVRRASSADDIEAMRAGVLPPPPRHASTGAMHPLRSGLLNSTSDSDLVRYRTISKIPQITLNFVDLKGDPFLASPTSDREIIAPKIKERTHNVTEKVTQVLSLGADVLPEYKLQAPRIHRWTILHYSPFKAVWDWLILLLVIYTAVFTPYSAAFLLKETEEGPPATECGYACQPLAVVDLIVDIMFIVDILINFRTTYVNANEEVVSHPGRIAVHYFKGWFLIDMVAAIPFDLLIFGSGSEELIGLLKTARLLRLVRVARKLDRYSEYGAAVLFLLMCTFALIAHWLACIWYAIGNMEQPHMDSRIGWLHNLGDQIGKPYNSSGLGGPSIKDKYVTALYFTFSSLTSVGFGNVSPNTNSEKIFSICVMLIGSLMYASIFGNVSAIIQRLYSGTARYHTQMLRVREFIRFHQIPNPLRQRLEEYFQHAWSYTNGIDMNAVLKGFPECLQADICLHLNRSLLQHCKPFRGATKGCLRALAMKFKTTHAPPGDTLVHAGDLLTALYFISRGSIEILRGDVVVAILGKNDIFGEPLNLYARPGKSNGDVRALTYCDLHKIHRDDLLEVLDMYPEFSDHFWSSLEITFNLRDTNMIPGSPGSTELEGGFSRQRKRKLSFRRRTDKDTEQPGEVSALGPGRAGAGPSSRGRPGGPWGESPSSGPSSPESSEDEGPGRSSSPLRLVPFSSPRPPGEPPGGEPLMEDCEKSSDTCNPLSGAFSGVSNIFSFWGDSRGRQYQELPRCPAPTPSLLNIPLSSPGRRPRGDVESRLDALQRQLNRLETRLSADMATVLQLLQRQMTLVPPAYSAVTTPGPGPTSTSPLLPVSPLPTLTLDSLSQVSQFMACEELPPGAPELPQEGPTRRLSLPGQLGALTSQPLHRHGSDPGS

Row | Compound | hERG current change (%, negative = inhibition) at 1uM
1 | CN(C)c1ccc(C(=O)c2ccc(N(C)C)c3ccccc23)cc1 | 11.3%
2 | CCCSc1nc(-c2ccccc2)cc(C(F)(F)F)c1C#N | -5.06%
3 | CC(C)CNc1nc(N)c([N+](=O)[O-])c(NC2CCCCC2)n1 | 1.91%
4 | CC(CNS(=O)(=O)c1ccc(Cl)cc1)n1cncn1 (stereo not shown) | 14.2%
5 | COc1cccc(C2CC(C(F)(F)F)n3ncc(C(=O)NC(C)(C)C)c3N2)c1 (stereo not shown) | 14.1%
6 | CC1CN(c2ccc(NS(=O)(=O)c3ccccc3)cc2C(=O)O)CC(C)O1 (stereo not shown) | 11%
7 | CCc1ccccc1Nc1nc(N)nc(CSc2nnnn2C)n1 | 4.04%
8 | CC(C)(C)NC(=O)C(c1ccncc1)N(Cc1cccs1)C(=O)Cn1nnc(-c2cccs2)n1 (stereo not shown) | 9.26%
9 | NS(=O)(=O)c1ccc(CCNC(=O)c2cc(=O)[nH]c3ccccc23)cc1 | 7.05%
10 | NNC(=O)c1[nH]c(-c2ccccc2)cc1-c1ccccc1 | 21.3%
11 | O=c1oc(-c2cccs2)nc2sc3c(c12)CCCC3 | 6.47%
12 | CC(=O)N1c2c(cc(Br)cc2S(=O)(=O)NCc2ccc3c(c2)OCO3)CC1C (stereo not shown) | -16%
13 | CCC(=O)c1ccc(OCC(O)CN2CCOCC2)cc1 (stereo not shown) | 17.8%
14 | COC(=O)[C@H](C)NC(=O)NCc1ccc(F)cc1 | 16.1%
15 | O=C(/C=C/c1cccc([N+](=O)[O-])c1)Nc1ccccn1 | 7.42%
16 | CCc1nc2ccccc2c(C(=O)NCc2ccc(OC)cc2)c1C | -7.59%
17 | CC1(C)C/C(=N\NC(=S)Nc2ccccc2F)c2cc(O)ccc2O1 | 7.57%
18 | CCOc1ccc(CCNC(=O)COC(=O)c2oc3ccccc3c2COC)cc1OCC | 7.14%
19 | Cc1ccc(C)c(NC(=S)/C(=C(\[O-])c2ccc(Cl)s2)[n+]2ccccc2)c1 | -0.785%
20 | COc1cc(C(=O)COC(=O)c2cc([N+](=O)[O-])ccc2N2CCOCC2)ccc1OC(F)F | -16.7%

Row | Compound | hERG current change (%, negative = inhibition) at 1uM
21 | Cc1cc(C(=O)c2cnc(/N=C/N(C)C)s2)c(F)cc1Cl | 2.29%
22 | CCN(Cc1ccccc1)C(=O)c1cc2c(OC)c(OC)c(OC)cc2[nH]1 | 6.4%
23 | COc1cc(C2N=C(c3ccccc3)NO2)cc(Br)c1O (stereo not shown) | 2.52%
24 | Cc1ccc(CNc2nc(Cl)c(C#N)s2)cc1 | 6.64%
25 | COc1ccccc1CC(=O)N1CCN(CCc2ccccc2)CC1 | 0.818%
26 | O=c1n(-c2ccccc2)c(=O)n(Cc2ccccn2)n1Cc1ccccn1 | 7.69%
27 | COc1ccc(C(C)=O)cc1CSc1nnc(Nc2ccccc2)s1 | 16.8%
28 | Cc1cc(Nc2cccc(C)c2C)n2ncnc2n1 | 9.74%
29 | Cc1nc(C(=O)N(C)C)nn1-c1cc(Cl)cc(Cl)c1 | 11.5%
30 | COc1ccc(C(=O)N/C(=C\c2cn(C)c3ccccc23)C(=O)N2CCN(C)CC2)cc1 | 10.2%
31 | COCCN=c1scc(-c2cc(OC)c(OC)c(OC)c2)n1/N=C/c1c(C)[nH]c2ccccc12 | 6.44%
32 | O=C(OCc1nc2ccc(Cl)cc2n1CCO)c1ccccc1 | 8.43%
33 | Br.CCOC(=O)/C(C)=N/Nc1nc(-c2ccc(NC(C)=O)cc2)cs1 | 10%
34 | O=C(Cc1cccs1)Nc1nc(-c2ccccc2)cs1 | -1.23%
35 | CC(C)(C)NC(=O)NC(=O)CN1CCN(S(=O)(=O)c2ccc3c(c2)CCCC3)CC1 | 12.6%
36 | CCOc1nc(-c2ccccc2)ncc1Oc1ccccc1 | 18.6%
37 | O=C(Nc1nnc(C(F)(F)F)s1)c1c(F)cccc1F | 13.6%
38 | O=C1C2C3C=CC(CO)(O3)C2C(=O)N1c1ccccc1-c1ccccc1 (stereo not shown) | 16.9%
39 | O=C(O)c1ccccc1CSc1ncn[nH]1 | 3.87%
40 | O=C1OCCC1Sc1nnc(-c2cccc(Br)c2)o1 (stereo not shown) | 7.56%

Row | Compound | hERG current change (%, negative = inhibition) at 1uM
41 | COCCSc1nnc(NC(=O)C2CCCCC2)s1 | 12.9%
42 | Cc1ccc(S(=O)(=O)Oc2ccc(/C=C(/NC(=O)c3ccccc3)C(=O)NCCCC(=O)O)cc2)cc1 | 17.3%
43 | CCOC(=O)CC1(NC(=O)C2CCC(=O)N(Cc3ccccc3F)C2)CCCCC1 (stereo not shown) | 11.5%
44 | COc1ccc(C2=NOC(Cn3nc(C(=O)NCc4cccc(C(F)(F)F)c4)cc3-c3ccccc3)C2)cc1 (stereo not shown) | 13.6%
45 | CCCn1ccc(O)c(Cc2ccc(Cl)cc2)c1=O | 15.7%
46 | Cc1ccc(CN2CCN(CC(=O)N/N=C/c3ccccc3F)CC2)cc1 | -34.9%
47 | C[C@@H]1CCCCCCCCCCC1=O | 13.3%
48 | CC(=O)Nc1ccc(NC(=O)COC(=O)c2ccco2)cc1 | 10.1%
49 | COc1ccc(-n2c(O)c(C=Nc3ccccc3)c3ccccc3c2=O)cc1 | 16.1%
50 | C/C(=C\C(=O)c1ccccc1)Nc1ccc(Br)c(Cl)c1 | 13.7%
51 | O=C(Cn1cncn1)N/N=C/c1cccc2ccccc12 | 0.867%
52 | Cc1noc(/C=C/N(C)C)c1S(=O)(=O)N(C)CC(=O)N1CCc2ccccc21 | 2.3%
53 | CCOc1ccc(/C=N/NC(=O)C(C)Sc2ccccn2)cc1OCC (stereo not shown) | 12%
54 | COc1ccc(N2CCN(C3CCCN(Cc4cccc(C)c4)C3)CC2)cc1 (stereo not shown) | 9.53%
55 | Cc1cc(/C=C\c2ccccc2)nc2ccccc12 | 5.43%
56 | CCOc1ccc(N2C(=O)CSC2=NC#N)cc1 | 6.59%
57 | Nc1ccc2nc(-c3ccccc3)c(-c3ccccc3)nc2c1 | 13.1%
58 | CSCCC(=O)NC1CCCN(CCc2ccccc2)C1 (stereo not shown) | 3.88%
